# Measurements reported in the supplement of paper PMC3334620.
# Over roughly 33,000 sequences, “E-score (-0.5 to 0.5)” has its median near -0.032; the highest 2% begin near 0.36. The list shows a part of the results.
# Target: T1, Sko1 (UniProt Q02100)
# T1 sequence: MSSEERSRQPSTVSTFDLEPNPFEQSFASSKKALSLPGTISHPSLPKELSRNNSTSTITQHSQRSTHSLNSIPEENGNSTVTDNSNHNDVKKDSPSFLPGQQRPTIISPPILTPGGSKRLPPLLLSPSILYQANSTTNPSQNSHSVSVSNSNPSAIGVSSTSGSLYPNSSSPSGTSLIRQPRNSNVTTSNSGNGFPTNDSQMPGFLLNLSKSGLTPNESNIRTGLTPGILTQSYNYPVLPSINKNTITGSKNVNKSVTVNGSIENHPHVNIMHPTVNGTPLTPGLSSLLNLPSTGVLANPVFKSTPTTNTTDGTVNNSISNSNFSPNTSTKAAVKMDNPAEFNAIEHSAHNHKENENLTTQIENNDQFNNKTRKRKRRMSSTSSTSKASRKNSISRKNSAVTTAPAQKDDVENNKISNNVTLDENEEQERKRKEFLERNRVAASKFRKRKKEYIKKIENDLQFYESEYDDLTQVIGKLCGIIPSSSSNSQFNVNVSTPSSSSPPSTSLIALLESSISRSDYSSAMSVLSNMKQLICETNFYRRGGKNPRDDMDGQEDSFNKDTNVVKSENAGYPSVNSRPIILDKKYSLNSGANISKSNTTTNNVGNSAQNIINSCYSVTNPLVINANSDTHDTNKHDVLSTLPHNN
# Assay: PBM E-score (8-mer binding enrichment) (E-score (-0.5 to 0.5)); higher = stronger / more preferred TF binding; most listed sequences are background and not binding sites
# Conditions: protein concentration: 200 nM; construct: GST-full length
# Outline: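 E-scores (a modified Wilcoxon-Mann-Whitney statistic) were assigned by the Universal PBM Analysis Suite to every ungapped eight-base word pooled with its reverse complement. The input came from universal all-10-mer Agilent arrays made double-stranded by primer extension and probed with GST-tagged yeast transcription factors at about 100-200 nM. Fluorescent anti-GST detected bound protein, and masliner normalised the scans.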
row,Sequence,PBM E-score
1,ACGACAGC,0.225
2,CTTAGTAC,0.00743
3,AGAGGTGA,-0.0048
4,ATCCAGAC,-0.117
5,GCACCAAA,-0.0247
6,GAAAACAC,0.0759
7,AGTTAATC,0.0573
8,AGTCAACG,0.0691
9,ATGGAACG,0.0532
10,AGTTGCGG,-0.097
11,ACAGTTAA,0.00167
12,ACGCCCTA,-0.0906
13,AGCCGTGA,-0.0249
14,GTTAATCA,0.272
15,CAACGAAA,0.249
16,ACGGGAGG,-0.244
17,ATTAGGAC,-0.11
18,TCTTACAA,-0.0235
19,CGGCCCTA,-0.224
20,GCACCAGC,-0.168
21,GCCGCTCA,-0.171
22,GTAAACTA,0.267

row,Sequence,PBM E-score
1,GTGTTCCA,-0.165
2,CCAAGTTC,-0.223
3,GTCACCTA,0.177
4,CTGTATAC,0.0913
5,GTCAGTCA,0.228
6,ACGATTGC,0.197
7,ACTTAATC,0.0499
8,GGCATCAC,0.0833
9,GGTATCAC,-0.0377
10,ACAGATAC,0.167
11,GTACAGCA,-0.0622
12,ATACACAT,0.132
13,AGCCTAGG,-0.355
14,AATTCGGT,0.187
15,ACCTTAAA,-0.0637
16,AGGTTTTC,0.145
17,GAATAATA,0.133
18,ACAAGGAT,-0.0939
19,GACGGTTA,-0.101
20,CTGGTGAA,-0.226
21,CTACGTAC,0.449
22,ACGGAACC,0.1

row,Sequence,PBM E-score
1,CATTATCG,0.0219
2,ATCGGTCA,-0.195
3,ATAAAAAG,0.112
4,GGGAATAA,0.0389
5,AAAGCGAC,0.00752
6,CCTATACA,-0.077
7,CACGGTGC,-0.215
8,CCATCGCC,-0.222
9,ACGACCCG,-0.161
10,ACGGGGGA,-0.104
11,GGATTTGA,0.117
12,CGTCCCCA,-0.197
13,CCGCTATC,-0.23
14,CTCTGCAC,-0.274
15,AAAGCACT,-0.165
16,AATACGCC,0.198
17,GCTGGCCC,-0.341
18,CTTTACAC,0.219
19,AAGCGTCC,-0.0948
20,CAGCAGAG,-0.366
21,AGATATGC,0.0741
22,AAAAGTCA,-0.00301

row,Sequence,PBM E-score
1,CGCTAAAG,0.0188
2,AAGGTACA,-0.0469
3,ACTTGTGC,-0.216
4,CAAAGAGA,-0.139
5,AAATCCTC,-0.169
6,ATAACTCC,-0.213
7,TCGTTGAA,0.162
8,CATATACA,0.282
9,CTAGGTAC,-0.0343
10,GGATGCCC,-0.326
11,ACCGAGCT,-0.276
12,CATCCCAG,-0.258
13,ATGGTCAA,0.0955
14,CATAGTGA,0.0421
15,CGCAGACA,-0.0945
16,ATATTCCA,0.169
17,CTGCACCC,-0.248
18,CTATTTTC,0.0487
19,ATGACGGC,0.285
20,CGAGGAAA,-0.0368
